Laboratory results reported in PMC5762908 (Scientific Reports, 2018).

System: cancer multicellular spheroids formed from HCT116 cells
Assay: 3D multicellular spheroids culture, alamar blue assay
Format: cell-based, human
Procedure: Cell viability was quantified using the alamar blue assay, according to Ahmed et al.[28]. Cells were inserted in 96-well plates for all experiments (7 × 10^4 cells/mL for adherent cells or 3 × 10^5 cells/mL for suspended cells in 100 μL of medium). After 24 h, the complex was dissolved in dimethyl sulfoxide (DMSO, Sigma-Aldrich co.) and added to each well and incubated for 72 h. […] Four (for cell lines) or 24 h (for PBMCs) before the end of incubation, 20 μL of a stock solution (0.312 mg/mL) of the alamar blue (resazurin, Sigma-Aldrich Co.) were added to each well. Absorbance at 570 nm and 600 nm was measured using the SpectraMax 190 Microplate Reader (Molecular Devices, Sunnyvale, CA, EUA), and the drug effect was quantified as the percentage of control absorbance.
Briefly, 100 μL of a solution of cells (0.5 × 10^6 cells/mL) were inserted in 96-well plate with a cell-repellent surface (Greiner Bio-One; Kremsmünster, Austria) and cultured in complete medium plus 3% matrigel (BD Biosciences; San Jose, CA, EUA). Spheroids with stable structures had formed after three days. Then, the spheroids were exposed to a range of drug concentrations for 72 h, after which the cell viability was quantified by alamar blue assay as described above.

For [Ru(5-FU)(PPh3)2(bipy)]PF6 [RU/5-FU], the “Effect on spheroid cell aggregations (light microscopy)” value (3D HCT116 spheroids) was “disrupted these cell aggregations”, the “more potent than 5-FU (fold)” value (3D HCT116 spheroids, IC50 compared with 5-FU) was no less than 113 fold and the IC50 (3D multicellular spheroids, alamar blue assay, 72 h) was 1.7 µM.
